In the supplement of paper PMC6206098:
± gives the uncertainty stated by the source. The sequences are guide strands of siRNAs; only the seed at positions 2 to 7 varies.

Legend:
3LL = assay: cell viability relative to siNT1 control; higher = less toxic; conditions: concentration: 10 nM; 96 h; Mus musculus;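 note: Luminescence-based viability of cells reverse transfected in 384-well plates with lipid-complexed siRNAs built on a non-toxic 19mer backbone whose passenger strand carries 2′-O-methyl groups at positions 1 and 2, triplicates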
H460 = assay: cell viability relative to lipid-only control; HeyA8 human ovarian and H460 human lung cancer; M565 mouse liver and 3LL mouse lung cancer; siNT1 is a non-toxic control siRNA; higher = less toxic; conditions: concentration: 10 nM; 96 h; Homo sapiens
HeyA8 = assay: as above; conditions: concentration: 10 nM; 96 h; Homo sapiens
M565 = assay: as above; conditions: concentration: 10 nM; 96 h; Mus musculus
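Throughout, for cell viability relative to lipid-only control: reverse lipid transfection in 384-well plates, in triplicate, of duplexes on a non-toxic 19mer backbone with passenger strand 2′-O-methylated at positions 1 and 2, luminescence viability read-out.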

Sequence | cell viability (3LL) | cell viability (H460) | cell viability (HeyA8) | cell viability (M565)
UGCCCCAACAUGUAAACCAAA | 54.9 ± 5.1% | 64.6 ± 4.5% | 67.9 ± 1.9% | 24.7 ± 9.7%
UGCCCCCACAUGUAAACCAAA | 24.2 ± 0.97% | 45.7 ± 4.2% | 41.9 ± 1.4% | 42.1 ± 2%
UGCCCCGACAUGUAAACCAAA | 50 ± 14% | 58.4 ± 3.8% | 75.3 ± 3% | 60.3 ± 3.2%
UGCCCCUACAUGUAAACCAAA | 18.1 ± 4.6% | 72.5 ± 5.5% | 72.7 ± 6% | 17.6 ± 3.6%
UGCCCGAACAUGUAAACCAAA | 76.5 ± 13% | 64.4 ± 4.3% | 84.6 ± 4.1% | 47.2 ± 1.7%
UGCCCGCACAUGUAAACCAAA | 47.1 ± 7% | 46.8 ± 1.2% | 28.3 ± 2.6% | 55.3 ± 4.4%
UGCCCGGACAUGUAAACCAAA | 38.3 ± 2.8% | 65.6 ± 8.1% | 63.5 ± 3.5% | 25.4 ± 3%
UGCCCGUACAUGUAAACCAAA | 57.9 ± 5.6% | 77.9 ± 8.9% | 57.7 ± 1.6% | 60 ± 3.2%
UGCCCUAACAUGUAAACCAAA | 85.2 ± 14% | 76.7 ± 23% | 82.8 ± 6.6% | 51.2 ± 6.1%
UGCCCUCACAUGUAAACCAAA | 12.5 ± 4.7% | 16.4 ± 1.5% | 10.3 ± 0.17% | 20.9 ± 6%
UGCCCUGACAUGUAAACCAAA | 77.4 ± 7.8% | 45.5 ± 5.5% | 78.1 ± 2.8% | 44.9 ± 4.7%
UGCCCUUACAUGUAAACCAAA | 29 ± 2.3% | 67 ± 9.9% | 31.4 ± 5.5% | 18.5 ± 4.9%
UGCCGAAACAUGUAAACCAAA | 89.1 ± 12% | 100 ± 8.1% | 91.1 ± 3.1% | 51.3 ± 8.8%
UGCCGACACAUGUAAACCAAA | 34.7 ± 8.7% | 39.8 ± 7.1% | 8.66 ± 1.2% | 30.9 ± 2.7%
UGCCGAGACAUGUAAACCAAA | 82.5 ± 9.4% | 83.6 ± 7% | 84.9 ± 4% | 47.2 ± 3.6%
UGCCGAUACAUGUAAACCAAA | 78.7 ± 11% | 87 ± 4.2% | 46.2 ± 4.6% | 33.2 ± 3.8%
UGCCGCAACAUGUAAACCAAA | 14.4 ± 8.1% | 82.5 ± 15% | 43.5 ± 5.5% | 12 ± 3.1%
UGCCGCCACAUGUAAACCAAA | 8.14 ± 2.3% | 34.8 ± 1.3% | 17.4 ± 2.3% | 12.3 ± 5%
UGCCGCGACAUGUAAACCAAA | 49.6 ± 2.2% | 82.8 ± 7.3% | 73.2 ± 4.6% | 25.9 ± 3.8%
UGCCGCUACAUGUAAACCAAA | 17.3 ± 4.6% | 45.5 ± 3.7% | 13.2 ± 2% | 12.9 ± 3.8%

Sequence | cell viability (3LL) | cell viability (H460) | cell viability (HeyA8) | cell viability (M565)
UGCCGGAACAUGUAAACCAAA | 52.4 ± 6.2% | 45.1 ± 1.6% | 75.3 ± 6.8% | 19 ± 1.2%
UGCCGGCACAUGUAAACCAAA | 27.6 ± 0.57% | 29.4 ± 3.2% | 6.33 ± 0.3% | 16.3 ± 1.4%
UGCCGGGACAUGUAAACCAAA | 60.1 ± 10% | 57.9 ± 5.8% | 35.9 ± 5.7% | 17 ± 6%
UGCCGGUACAUGUAAACCAAA | 77.8 ± 6.1% | 22.2 ± 1.6% | 7.45 ± 0.78% | 47.8 ± 7.9%
UGCCGUAACAUGUAAACCAAA | 77.8 ± 7.6% | 66.5 ± 9.9% | 77.1 ± 3.6% | 36.3 ± 5.5%
UGCCGUCACAUGUAAACCAAA | 46.4 ± 7.1% | 50.7 ± 5.6% | 27 ± 0.91% | 8.92 ± 7.6%
UGCCGUGACAUGUAAACCAAA | 78.6 ± 9.6% | 64.2 ± 5.3% | 73.9 ± 2.6% | 24.5 ± 2.4%
UGCCGUUACAUGUAAACCAAA | 57.5 ± 15% | 67.4 ± 11% | 65.4 ± 1.6% | 34.8 ± 4.8%
UGCCUAAACAUGUAAACCAAA | 87.8 ± 12% | 54.8 ± 6.7% | 80.21 ± 0.56% | 61.6 ± 6.9%
UGCCUACACAUGUAAACCAAA | 53 ± 8.7% | 28.1 ± 2.8% | 27 ± 2.5% | 25.2 ± 3.5%
UGCCUAGACAUGUAAACCAAA | 78.5 ± 13% | 43 ± 1.4% | 67.8 ± 4.4% | 50.3 ± 2.1%
UGCCUAUACAUGUAAACCAAA | 58 ± 8.4% | 58 ± 4.7% | 59.9 ± 4.3% | 27.4 ± 9.7%
UGCCUCAACAUGUAAACCAAA | 72.2 ± 6.9% | 35.9 ± 5.3% | 63.5 ± 8.3% | 19.1 ± 5.6%
UGCCUCCACAUGUAAACCAAA | 51.3 ± 10% | 26.3 ± 0.96% | 19.4 ± 1% | 8.85 ± 5.1%
UGCCUCGACAUGUAAACCAAA | 89.5 ± 11% | 36.2 ± 4.6% | 61.6 ± 2.2% | 48 ± 6.2%
UGCCUCUACAUGUAAACCAAA | 48 ± 4.7% | 39.4 ± 1.8% | 61.1 ± 4.4% | 4.18 ± 1.1%
UGCCUGAACAUGUAAACCAAA | 66.1 ± 7.8% | 49.4 ± 1.5% | 15.3 ± 0.85% | 41.9 ± 6.7%
UGCCUGCACAUGUAAACCAAA | 15.6 ± 5.7% | 17 ± 1.1% | 9.65 ± 1.6% | 27.2 ± 1.1%
UGCCUGGACAUGUAAACCAAA | 33.6 ± 11% | 27.4 ± 3.4% | 24.3 ± 4.1% | 37.7 ± 4.9%
UGCCUGUACAUGUAAACCAAA | 38.3 ± 7.3% | 19.1 ± 0.85% | 2.98 ± 0.49% | 36.6 ± 0.65%

Sequence | cell viability (3LL) | cell viability (H460) | cell viability (HeyA8) | cell viability (M565)
UGCCUUAACAUGUAAACCAAA | 94 ± 21% | 62.6 ± 4.5% | 54.9 ± 4% | 42.9 ± 11%
UGCCUUCACAUGUAAACCAAA | 6.1 ± 0.98% | 24.6 ± 3.8% | 6.89 ± 0.63% | 32.6 ± 11%
UGCCUUGACAUGUAAACCAAA | 86.4 ± 16% | 63.3 ± 9.1% | 45.2 ± 4.4% | 42 ± 6.3%
UGCCUUUACAUGUAAACCAAA | 40.2 ± 12% | 47.1 ± 3.9% | 16.4 ± 2.2% | 9.63 ± 1.8%
UGCGAAAACAUGUAAACCAAA | 89.8 ± 7.8% | 90.5 ± 2.6% | 86.5 ± 7.6% | 81.5 ± 2.3%
UGCGAACACAUGUAAACCAAA | 88 ± 9.1% | 93.9 ± 11% | 80.2 ± 8% | 82.2 ± 4.3%
UGCGAAGACAUGUAAACCAAA | 93.2 ± 13% | 94.2 ± 12% | 77.5 ± 4.7% | 62.3 ± 3.9%
UGCGAAUACAUGUAAACCAAA | 93.7 ± 13% | 85.8 ± 9.4% | 82.9 ± 6.6% | 80.8 ± 2.8%
UGCGACAACAUGUAAACCAAA | 96.3 ± 10% | 73.1 ± 9.3% | 84.4 ± 3.4% | 81.6 ± 2.2%
UGCGACCACAUGUAAACCAAA | 71 ± 9% | 39.5 ± 2% | 13.3 ± 1.6% | 39.1 ± 14%
UGCGACGACAUGUAAACCAAA | 95.8 ± 12% | 74 ± 7.7% | 83.8 ± 9.2% | 76.6 ± 4.4%
UGCGACUACAUGUAAACCAAA | 15 ± 6.5% | 63.4 ± 4.8% | 33.3 ± 2.6% | 44.3 ± 2.5%
UGCGAGAACAUGUAAACCAAA | 87.4 ± 10% | 88.5 ± 7.6% | 75.3 ± 5.9% | 56.8 ± 1%
UGCGAGCACAUGUAAACCAAA | 89.7 ± 6.4% | 74.8 ± 2.2% | 69.5 ± 5.1% | 35.2 ± 5.8%
UGCGAGGACAUGUAAACCAAA | 87.2 ± 9.1% | 58.7 ± 6.3% | 53.3 ± 3.8% | 59.4 ± 2.8%
UGCGAGUACAUGUAAACCAAA | 81.2 ± 8.5% | 20.9 ± 1.8% | 13.5 ± 1.1% | 31.8 ± 6.7%
UGCGAUAACAUGUAAACCAAA | 92.2 ± 13% | 88.7 ± 9.1% | 92.3 ± 10% | 75.8 ± 4.5%
UGCGAUCACAUGUAAACCAAA | 92.8 ± 9.7% | 12.5 ± 1.2% | 41.7 ± 3.7% | 47.8 ± 7.6%
UGCGAUGACAUGUAAACCAAA | 84.1 ± 6% | 69.6 ± 5.8% | 74.1 ± 7.3% | 85.5 ± 2.1%
